# Data reported in the RNAGym collection of RNA variant scans (doi:10.7554/elife.90254).
# Read counts are not given, so values of variants with three or more changes are uncertain.
# B1: LINE1-full (parent)
# chain: UACGUAGGUGGUUUUCCCCUGAUAGUGCUAAGGGGGCCUGGAAGUUUGGACUGGGCAGAGCUCAACACAGCGUGGCAAAGUGGCUGUGGCUAGACUGCCUCUCUGGAUUCCUCGUCACUCAGCAGGGCAUCUCUGAGAGAAAUGCC
# Variants of: B1
# Experiment: self-cleavage, relative activity (ratio to wild type); higher = more cleavage; in vitro, sequencing; the parent is a self-cleaving ribozyme
row,Variant,self-cleavage
1,ACCGUAGGUGGUUUUCCCCUGAUAGUGCAAAGGGGGCCUGGAAGUUUGGACUGGGCAGAGCUCAACUCAGCGUGGCAAAGUGGCUGUGGCUGGACUGCCUCUCUGGAUUCCCCGUCACUCAGCAGGGCACCUCUGAGAGAAAUGCC [U1A A2C U29A A67U A92G U112C U130C],0
2,AGCGUAGGUGGUUUUCCCCUGAUAGUGCUAAGGGGGCCUGGAAGUUUGGACUGGGCAGAGCUCAACACAGCGUGGCGAAGCGGCUGUGGCUAGACUGCCUCUCUGGAUUCCUCGUCACUCAGCAGGGCAUCUCUGAGAGAAAUGCC [U1A A2G A77G U81C],1.84
3,AGCGUAGGUGGUUUUCCCCUGAUAGUGCUAAGGGGGCCUGGAAGUUUGGACUGGGCAGAGCUCAACACAGCGUGGCAAAGUGGCUGUGGCUAGACUGCCUCUCUGGAUUCCUCGUCGCUCAGCAGGGCAUCUCUGAGAGAGAUGCC [U1A A2G A117G A141G],1.16
4,AGCGUAGGUGGUUCUCCCCUGAUAGUGCUAAGGGGGCCUGGAAGUUUGGACUGGGCAGAGCUCAACACAGCGUGGCAAAGUGGCUGUGGCUAGACUGCCUCUCUGGAUUCCUCGUCACUCAGCAGGGCAUCUCUGAGAGAAGUGCC [U1A A2G U14C A142G],0.64
5,AACGUGGGUGGUUUUCCCCUGAUAGUACUAAGGGGGCCUGGAAGUUUGGACUGGGCAGAGCUCAACACAGCGUGGCAAAGUGGCUGUGGCUAGACUGCCUCUCUGGAUUCCUCGUCACUCAGCAGGGCAUCUCUGGGAGAAAUGCC [U1A A6G G27A A136G],0.98
6,AACGUAGGUGGUUUUCCCCUGGUAGUGCUAAGGGGGCCUGGAAGUUUGGACUGGGCAGAGCUCAACACAGCGUGGCAGAGUGGGUGUGGCUAGACUGCCUCUCUGGAUUCCUCGUCACUCAGCAGGGCACCUCUGAGAGAAAUGCC [U1A A22G A78G C84G U130C],0.28
7,AACGUAGGUGGUUUUCCCCUGGUAGCGCUAAGGGGGCCUGGAAGUUUGGACUGGGCAGAGCUCAACACAGCGUGGCAAAGUGGCUGUGGCUAGACUGCCUCUCUGGAUUCCUCGUCACUCAGCAGGGCAUCUCUGAGAGAAAUGCC [U1A A22G U26C],2.45
8,AACGUAGGUGGUUUUCCCCUGGUAGUGCUAAGGGGGCCUGGAAGUUUGGACUGGGCAGAGCUCAACACAGCGUGGCAAAGUGGCUGUGGCUAGACUGCCUCUCUGGAUUCCUCGUCACUCAGCAGGGCAUCUCAGAGAGAAAUGCC [U1A A22G U134A],0.77
9,AACGUAGGUGGUUUUCCCCUGAUGGUGCUAAGGGGGCCUGGAAGCUUGGACUGGGCAGAGCUCAACACAGCGUGGCAAAGUGGCAGUGGCUAGACUGCCUCUCUGGAUUCCUCGUCACUCAGCAGGGCAUCUCUGAGAGAGAUGCC [U1A A24G U45C U85A A141G],0.35
10,AACGUAGGUGGUUUUCCCCUGAUAGUGCUGAGGGAGCCUGGAAGUUUGGACUGGGCAGAGCUCAACACAGCGUGGCAAAGUGGCUGUGGCUAGACUGCCUCUCUGGAUUCCUCGUCACCCAGCAGGGCAUCUCUGAGAGAAAUGCC [U1A A30G G35A U119C],1.24
11,AACGUAGGUGGUUUUCCCCUGAUAGUGCUUAGGGGGCCUGGAAGUUUGGGCUGGGCAGAGCUCAACACAGCAUGGCAAAGUGGCUGUGGCUAGACUGCCUCCCUGGAUUCCUCGUCACUCAGCAGGGCAUCUCUGAGAGAAAUGCC [U1A A30U A50G G72A U102C],2.3
12,AACGUAGGUGGUUUUCCCCUGAUAGUGCUAAGGGGGCCUGGGAGUCUGGACUGGGCAGAGCUCAACACAGCGUGGCAAAGUGGCUGUGGCUAGACUGCCUCUCUGGAUUCCUCGUCACUCAGCAGGGCAUCUCUGAGAGAAACGCC [U1A A42G U46C U143C],0.65
13,AACGUAGGUGGUUUUCCCCUGAUAGUGCUAAGGGGGCCUGGAGGUUUGGACUGGGCAGAGCUCAACACAGCGUGGCAAAGUGGCUGUGGCUAGACUGCCUCUCUGGAUUCCUCGUCACUCAGGAGGGCAUCUCCGAGAGAAAUGCC [U1A A43G C123G U134C],0.96
14,AACGUAGGUGGUUUUCCCCUGAUAGUGCUAAGGGGGCCUGGAGGUUUGGACUGGGCAGAGCUCAACACAGCGUGGCAAAGUGGCUGUGGCUAGACUGCCUCUCUGGAUUCCUCGACACUCAGCAGGGCAUCUCUGGGAGAAAUGCC [U1A A43G U115A A136G],1.45
15,AACGUAGGUGGUUUUCCCCUGAUAGUGCUAAGGGGGCCUGGAAGUUUGGACUGGGCGGAGCUCAACACAGCGUGGCAAAGUGGCUGUGGCUAGACUGCCUCCCUGGAUUCCUCGUCACUCAGCAGGGCAUCUCUGAGAGAAAUGCC [U1A A57G U102C],0.85
16,AACGUAGGUGGUUUUCCCCUGAUAGUGCUAAGGGGGCCUGGAAGUUUGGACUGGGCAGGGCUCAACACAGCGUGGCAAAGUGGCUGUGGCUAGACUGCCUCUCUGGAUUCCUCGUCACUCAGCAGGGCAUCUCUGAGGGAAAUGCC [U1A A59G A138G],0.17
17,AACGUAGGUGGUUUUCCCCUGAUAGUGCUAAGGGGGCCUGGAAGUUUGGACUGGGCAGAGCUCGACGCAGCGUGGCAAAGUGGCUGUGGCUAGACUGCCUCUCUGGAUUCCUUGUCACUCAGCAGGGCAUCUCUGAGGGAAAUGCC [U1A A64G A67G C113U A138G],0.19
18,AACGUAGGUGGUUUUCCCCUGAUAGUGCUAAGGGGGCCUGGAAGUUUGGACUGGGCAGAGCUCAACACUGCGUGGCAAAGUGGCUGUGGCUAGACUGCCUCUCUGGACUCCUCGUCACUCAGCAGGGCAUCUCCGAGAGAAAUGCC [U1A A69U U108C U134C],0.22
19,AACGUAGGUGGUUUUCCCCUGAUAGUGCUAAGGGGGCCUGGAAGUUUGGACUGGGCAGAGCUCAACACAGCGUGGCAAAGUGGCUGUGGCUAGUCUGCCUCUCUGGAUCCCUCGUCACUCAGCAGGGCAUCUCUGAGAGAAAUGCC [U1A A94U U109C],0.51
20,AACGUAGGUGGUUUUCCCCUGAUAGUGCUAAGGGGGCCUGGAAGUUUGGACUGGGCAGAGCUCAACACAGAGUGGCAAAGUGGCUGUGGCUAGACUGCCUCUCUGGAUUCCUCGUCACUCAGCAGGGCAUCUCUGGGAGAAAUGCC [U1A C71A A136G],0.42

row,Variant,self-cleavage
1,AACGUAGGUAGUUUUCCCCUGAUAGUGCUAAGGGGGCCUGGAAGUUCGGACUGGGCAGAGCUCAACACAGCGUGGCAAAGUGGCUGUGGCUAGACUGCCUCUCUGGAUUCCUCGUCACUCAGCAGGGCAUCUCUGAGAGAAAUGCC [U1A G10A U47C],0.49
2,AACGUAGGUGGUUUUCCCCUGAUAGUACUAAGGGGGCCUGGAAGUUUGGACUGGGCAGAGCUCAGCACAGCGUGGCAAAGUGGCUGUGGCUAGACUGCCUCUCUGGAUCCCUCGUCACUCAGCAGGGCAUCUCUGAGAGAAAAGCC [U1A G27A A65G U109C U143A],0
3,AACGUAGGUGGUUUUCCCCUGAUAGUGCUAAGGUGGCCUGGAAGUUUGGACUGGGCAGAGCUCAACUCAGCGUGGCAAAGUGGCUGUGGCUAGACUGCCUCUCUGGAUUCCUCGUCACUCAGCAGGGCAUCUCUGAGAGGAAUGCC [U1A G34U A67U A140G],0.31
4,AACGUAGGUGGUUUUCCCCUGAUAGUGCUAAGGGGGCCUGGAAGUUUGGACUGAGCAGAGCUCAACACAGCGAGGCAAAGUGGCUGUGGCUAGACCGCCUCUCUGGAUUCCUCGUCACUCAGCAGGGCAUCUCUGAGAGAAAUGCC [U1A G54A U73A U96C],0.04
5,AACGCAGGUGGUUUUCCCCUGAUAGUGCUAAGGGGGCCUGGAAGUUUGGACUGGGCAGAGCUCAACACAGCGUGGCAAAGUGGCUGUGGCUAGACUGCCUCUCUGGAUUCCUCGUCACUCAGCAGGGCAUCUCUGAGAGAGAUGCC [U1A U5C A141G],1.62
6,AACGUAGGAGGUUUUCCCCUGAUAGUGCUAAGGGGGCCUGGAAAUUUGGACUGGGCAGAGCUCAACACAGCGUGGCAAAGUGGCUGUGGCUAGGCUGCCUCUCUGGAAUCCUCGUCACUCAGCAGGGCAUCUCUGAGAGAAAUGCC [U1A U9A G44A A94G U108A],0.38
7,AACGUAGGCGGUUUUCCCCUGAUAGUGCUAAGGGGGCCUGGAAGUUUGGUCUGGGCAGGGCUCAACACAGCGUGGCAAAGUGGCUGUGGCUAGACUGCCUCUCUGGAUUCCUCGUCACUCAGCAGGGCAUCUCCGAGAGAAAUGCC [U1A U9C A50U A59G U134C],0.35
8,AACGUAGGCGGUUUUCCCCUGAUAGUGCUAAGGGGGCCUGGAAGUUUGGACUGGGCAGAGCUCAACACAGCGUGGCAAAGUGGCUGUGGCUAGACUGCCUCUCUGGAUUCCUCGUCCCUCAGCAGGGCAUCUCUGAGAGAAAUACC [U1A U9C A117C G144A],1.48
9,AACGUAGGUGGCUCUCCCCUGAUAGUGCUAAGGGGGCCUGGGAGUUUGGUCUGGGCAGAGCUCAACACAGCGUGGCAAAGUGGCUGUGGCUAGACUGCCUCUCUGGAUUCCUCGUCACUCAGCAGGGCAUCUCUGAGAGAAAUGCC [U1A U12C U14C A42G A50U],1.67
10,AACGUAGGUGGUCUUCCCCUGAUAGUGCUAAGGGGGCCUGGAAGUUUGGACUGGGCGGAGCUCAACACAGCGUGGCAAAAUGGCUGUGGCUAGACUGCCUCUCUGGAUUCCUCGUCACUCAGCAGGGCAUCUCCGAGAGAAAUGCC [U1A U13C A57G G80A U134C],0.81
11,AACGUAGGUGGUCUUCCCCUGAUAGUGCUAAGGGGGCCUGGAAGUUAGGACUGGGCAGAGCUCAACACAGCGUGGCAAAGUGGCUGUGGCUAGACUGCCUCUCUGGAUUCCUCGUCACUCAGCAGGGCGUCUCUGAGAGAAAUGCC [U1A U13C U47A A129G],0.31
12,AACGUAGGUGGUCUUCCCCUGAUAGUGCUAAGGGGGCCUGGAAGUUUGGACUGGGCAGAGCACAACACAGCGUGGCAAAGUGGCUGUGGCUAGACUGCCUCUCUGGAUUCCUCGUCACUCAGCAGGGCAUCUCUGAGAGAAAUGCC [U1A U13C U62A],0.27
13,AACGUAGGUGGUUAUCCCCUGAUAGUGCUAAGGGGGCCUGGAAGUUUGGACUGGGCAGAGCUCAACACAGCGUGGCAAAGUGGCUGUGGCUAGACUGCCUCUCUGGAUUCCUCGUCACUCAGCAGGGCAUCUCUGAGAGAAAUGCU [U1A U14A C146U],1.79
14,AACGUAGGUGGUUAUCCCCUGAUAGUGCUAAGGGGGCCUGGAAGCUUGGACUGGGCAGAGCUCAACACAGCGUGGCAAAGUGGCUGUGGCUAGACUGCCUCUCUGGAUUCCUCGUCACUCUGCAGGGCAUCUCUGAGAGAAAUGCC [U1A U14A U45C A121U],0.21
15,AACGUAGGUGGUUUUCCCCAGAUAGUGCUAAGGGGGCCUGGAAGUUUGGACUGGGCAGAGCUCAACACAGCGUGGCAAAGUGGCUGUGGCUAGACUGCCUCUCUGGAUUCCUCGUCACUCAGCAGGGCAUCUCUGAGAGAGAUGCC [U1A U20A A141G],0.69
16,AACGUAGGUGGUUUUCCCCCGAUAGUGCUAAGGGGGCCUGGAAGUUUGGACUGGGCAGAGCUCAACACAGCGUGGCAAAGUGGCUGUGGCUAGACUGCCUCUCAGGAUUCCUCGUCACUCAGCAGGGCAUCUCUGUGAGAAAUGCC [U1A U20C U104A A136U],1.51
17,AACGUAGGUGGUUUUCCCCUGACAGUGCUAAGGGGGCCUGGAAGUUUGGACUGGGCAGAGCUCAACACAGCGUGGCAAAGUGGCUGUGGCUAGACUGCCCCUCUGGAUUCCUCGUCACACAGCAGGGCAUCUCUGAGAGAAAUGCC [U1A U23C U100C U119A],1.62
18,AACGUAGGUGGUUUUCCCCUGAUAGCGCUAAGGGGGCCUGGAAGUUUGGACUGGGCAGAGCUCAACACAGCGUGGCAAAGUGGCCGUGGCUAGACUGCCUCUCUGGAUUCCUCGUCACUCAGCAGGGCAUCUCUGAGAGAAAUGCC [U1A U26C U85C],0.61
19,AACGUAGGUGGUUUUCCCCUGAUAGUGCUAAGGGGGCCUGGAAGCUUGGACUGGGCAGAGCUCAACACAGCGUGGCAAAGUGGGUGUGGCUAGACUGCCUCUCUGGAUUCCUCGUCACUCAGCAGGGCAUCUCUGAGAGAAAUGCC [U1A U45C C84G],0.13
